In all, about 310,000 compounds went through this assay and about 18,000 (5.8%) were called active. This list was built around the results that the source calls inconclusive (neither active nor inactive); the mix of calls is not that of the screen. Calls come from the whole dose curve; as a rule, active = well fitted inhibition curve with a large enough effect; inconclusive = small, poorly fitted or top-dose-only effect, or another doubt; inactive = no such curve, though single readings can be large or run the other way. No potency is given beside an inconclusive call; the fits are too rough.
Assay: Primary qHTS for delayed death inhibitors of the malarial parasite plastid, 48 hour incubation
Settings: P. falciparum luciferase growth in erythrocytes; series mostly up to 28.7 µM
How it was run: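 Cell-based growth assay: transgenic P. falciparum expressing firefly luciferase, cultured in red cells within RPMI 1640 containing 0.5% w/v Albumax, 24 mM bicarbonate and gentamycin. A drop in luciferase activity indicates inhibition.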
Potency is the fitted concentration of half-maximal effect; tags give direction and shape of the fitted curve.

Structure (SMILES) | Potency
Oc1ccccc1NCC(O)Cn1ccc2ccccc21 (stereo unspecified) | inconclusive [inhibitor, single point]
COc1ccc(CC2(CO)CCN(Cc3cnn(C)c3C)CC2)cc1 | inactive
Cn1c(=O)n(C)c2cc(/C=C3/SC(=O)N(CC(=O)N4CCOCC4)C3=O)ccc21 | inactive
CN(C)c1ccc(NC(=O)Cn2cc3c(n2)CCCC3)cc1 | inconclusive [inhibitor, single point]
Cc1nn(C(C)(C)C)c(OC(=O)c2cccs2)c1S(=O)(=O)c1ccccc1 | inactive
CC(O)CSc1nc2c(c(=O)n(C)c(=O)n2C)n1CCCc1ccccc1 (stereo unspecified) | inconclusive [inhibitor, single point]
COc1ccccc1NS(=O)(=O)c1cc(NC(=O)c2sccc2C)ccc1N1CCCC1 | inconclusive [inhibitor, single point]
Cn1nnc2sc3c(c2c1=O)CCCC3 | inconclusive [inhibitor, partial curve, poor fit]
Cc1ccc2c(Cl)c(C(=O)NC3CC3)sc2c1 | inactive
O=S(=O)(c1ccccc1Cl)N1CCCC(c2nc(-c3cccnc3)no2)C1 (stereo unspecified) | inconclusive [inhibitor, partial curve, poor fit]
Cc1nnsc1C(=O)Nc1cc(Cl)ccc1Cl | inactive
COc1ccc2nc(/N=C(\N)NC(=O)C(C)(C)C)nc(C)c2c1 | inconclusive [inhibitor, partial curve]
O=C/C=C/c1c(-c2ccccc2)cc2oc3ccccc3cc1-2 | inconclusive [inhibitor, single point]
O=C(NC1CCCCC1)C(c1ccccc1)N(C(=O)c1cccs1)c1ccc2c(c1)OCO2 (stereo unspecified) | inconclusive [inhibitor, single point]
COc1nc(N)nc(NC23CC4CC(CC(C4)C2)C3)n1 | inconclusive [inhibitor, single point]
CC(=O)Nc1ccc(N/C=C/C(=O)c2ccc(Br)cc2)cc1 | inactive
CC(C)COC(=O)/C(C#N)=C/c1c[nH]c2ccccc12 | inactive
CCc1cc2c(=O)c(-c3ccc4c(c3)OCO4)coc2c(CN(C)C)c1O | active: 9.28 µM
Cc1ccc(NC(=O)COc2ccc(/C=N/NC(=O)CSCc3ccccc3)cc2)cc1 | inconclusive [inhibitor, single point]
C=CCc1cccc2cc(C(=O)Nc3cccc(C(=O)O)c3)c(=O)oc12 | inconclusive [inhibitor, full curve, poor fit]
O=C(NCC(c1cccnc1)N1CCN(c2ccc(F)cc2)CC1)Oc1ccccc1 (stereo unspecified) | active: 8.28 µM
CC(C)(C)CNC(CO)C12CC3CC(CC(C3)C1)C2 (stereo unspecified) | inconclusive [inhibitor, single point]

Structure (SMILES) | Potency
C/C=C\C(=O)Nc1cccc(C2=NOC3(C2)C[C@@H](C(N)=O)N(C(=O)CCCCC)C3)c1 (stereo partly specified) | inconclusive [inhibitor, single point]
COc1ccc(CNC(=O)c2c(C)oc3c2C(=O)c2ccccc2C3=O)cc1 | inconclusive [inhibitor, full curve]
O=C(CN1CCN(Cc2ccc(Cl)cc2)CC1)N/N=C/c1cccs1 | inconclusive [inhibitor, partial curve, poor fit]
CC(C)(Oc1ccc(Cl)cc1)C(=O)O/N=C(\N)c1ccncc1 | inconclusive [inhibitor, single point]
COc1ccc(OC)c(Nc2nc(N)c([N+](=O)[O-])c(N3CCOCC3)n2)c1 | inconclusive [inhibitor, single point]
O=C(NCC(c1cccs1)N1CCOCC1)c1cccc([N+](=O)[O-])c1 (stereo unspecified) | inactive
O=S(=O)(c1ccccc1)c1cc(O)ccc1O | inactive
Cc1cccc(NC(=S)N(CCN2CCOCC2)Cc2ccccc2F)c1 | inconclusive [inhibitor, single point]
Cc1ccc(C)n1-c1nn(S(=O)(=O)c2cccc3cccnc23)c2cccc(F)c12 | inconclusive [inhibitor, partial curve]
CCn1ccnc1CN1CCCC(C(=O)c2ccc3c4c(cccc24)CC3)C1 (stereo unspecified) | inconclusive [inhibitor, full curve, poor fit]
Cc1cccc(N2CCN(C(=O)COc3cc(=O)n(C)c4ccccc34)CC2)c1C | active: 11.7 µM
COc1ccc(CCC(=O)Nc2ccc(S(=O)(=O)N3CCCC3)cc2)cc1OC | inconclusive [inhibitor, partial curve]
CN(C)CCCCOc1ccccc1-c1ccccc1 | inconclusive [inhibitor, partial curve, poor fit]
Cc1ccc(N2C(=O)N3[C@H](c4cccc(C)c4)[C@@H]4C(=O)N(Cc5ccccc5)C(=O)[C@@H]4[C@]3(C)C2=O)cc1 | inconclusive [inhibitor, single point]
COc1ccc(/C=C/C(=O)c2ccccc2)cc1Cn1nnc2ccccc21 | inconclusive [inhibitor, single point]
Cc1ccc(CNC(=O)C(=O)NCCC2CCCCN2S(=O)(=O)c2ccc(C)cc2)cc1 (stereo unspecified) | inconclusive [inhibitor, partial curve]
CC1CCN(S(=O)(=O)c2ccc(C(=O)Nc3sccc3C(N)=O)cc2)CC1 | inconclusive [inhibitor, partial curve]
COc1ccc(-c2cc(=O)oc3cc4occ(C)c4cc23)cc1 | inconclusive [inhibitor, full curve, poor fit]
Cc1ccc(C)c(NC(=O)C(OC(=O)c2ccc(C)s2)c2ccccc2)c1 (stereo unspecified) | inconclusive [inhibitor, single point]
Cc1cccc(C(=O)N2CCN(c3ccc([N+](=O)[O-])c(N4CCOCC4)c3)CC2)c1 | inconclusive [inhibitor, single point]
CCC(c1nnnn1C(C)(C)C)N1CCN(Cc2ccccc2OC)CC1 (stereo unspecified) | inactive
Cc1ccc(C)c(C(=O)Nc2ccncc2)c1 | inconclusive [inhibitor, partial curve, poor fit]

Structure (SMILES) | Potency
CN(C1CCCC1)C1CCN(C(=O)CNC(=O)/C=C/c2ccccc2)CC1 | inactive
C=CCn1c(SCC(=O)Nc2ccc(S(N)(=O)=O)cc2)nnc1-c1cnccn1 | inactive
COc1ccc(Cl)cc1NC(=O)CN(C)C(=O)CNC(=O)C12CC3CC(CC(C3)C1)C2 | inconclusive [inhibitor, single point]
CC(=O)Nc1ccc(NC(=O)C(C)OC(=O)/C=C/c2cccs2)cc1 (stereo unspecified) | inactive
CCN1C(=O)C2(Nc3ccccc3-c3nc4ccccc4n32)c2cc(OC)ccc21 (stereo unspecified) | active: 9.28 µM
CCCCC(=O)Nc1ccc(C(=O)N(CC)c2ccccc2C)cc1 | inconclusive [inhibitor, single point]
CC(=O)N1c2ccc(S(=O)(=O)NCCC(=O)NCc3ccc(Cl)cc3)cc2CC1C (stereo unspecified) | inconclusive [inhibitor, single point]
CCOc1ccccc1Nc1nnc(SCc2nnc(-c3cc(OC)c(OC)c(OC)c3)o2)s1 | inconclusive [inhibitor, partial curve, poor fit]
CCOC(=O)c1ccccc1NC(=O)CN1CCC(n2nnc3cc(C(F)(F)F)ccc32)CC1 | inconclusive [inhibitor, partial curve]
COc1cc(N/C(N)=N/c2nc(C)cc(C)n2)cc(OC)c1 | inconclusive [inhibitor, single point]
CCOc1ccc(NC(=O)CCCCCN2C(=O)[C@@H]3Cc4ccccc4CN3C2=O)cc1 | inconclusive [inhibitor, single point]
CCOC(=O)c1cccc(NC2c3ccccc3C(=O)N2Cc2ccco2)c1 (stereo unspecified) | inconclusive [inhibitor, single point]
CCN(CC)CCCNc1nc2cc(OC)c(OC)cc2c2nc(-c3cccnc3)nn12 | active: 4.15 µM
CN(C)S(=O)(=O)N1CCN(CC(O)COc2ccc(-c3ccccc3)cc2)CC1 (stereo unspecified) | inconclusive [inhibitor, partial curve, poor fit]
COc1ccc(CNC(=O)CS(=O)(=O)Cc2nc(-c3cccc(OC)c3)oc2C)cc1 | inconclusive [inhibitor, partial curve]
Cc1cc(F)ccc1NCc1cc2c(cc1[N+](=O)[O-])OCO2 | inconclusive [inhibitor, single point]
OC(COC(c1ccccc1)c1ccccc1)CN1CCc2ccccc2C1 (stereo unspecified) | inconclusive [inhibitor, single point]
CCCN1C(=O)/C(=C/c2c(NCCCOC(C)C)nc3c(C)cccn3c2=O)SC1=S | inconclusive [inhibitor, partial curve, poor fit]
CCn1cc(C(=O)NCC2CCCO2)c(=O)c2cc(F)c(N3CCN(C)CC3)cc21 (stereo unspecified) | inactive
N#C/C(=C/c1ccc(Br)o1)C(N)=O | inconclusive [inhibitor, single point]
CNC(=O)CSc1nc2ccccc2c(=O)n1-c1cc(OC)ccc1OC | inconclusive [inhibitor, single point]
Cc1ccc(NS(=O)(=O)c2cccc([N+](=O)[O-])c2)nc1 | inconclusive [inhibitor, single point]

From PubChem BioAssay AID504832 (National Center for Advancing Translational Sciences (NCATS), 2011)
